Experimental data published in article PMC6919601, “Identification of Plasmodium dipeptidyl aminopeptidase allosteric inhibitors by high throughput screening” (PLoS ONE, 2019).
The whole screen tested about 110,000 compounds, of which about 230 (0.21%) showed an effect of 50% or more. The list shows a part of the results.

molecular target: DPAP1 (Plasmodium falciparum, UniProt Q8IIJ9); test: primary screen, percent inhibition; read by cleavage of a fluorogenic dipeptide substrate; higher = more effect of the substance; design: species or system P. falciparum D10 trophozoite lysates; single well
Sequence (Q8IIJ9 whole entry, looked up): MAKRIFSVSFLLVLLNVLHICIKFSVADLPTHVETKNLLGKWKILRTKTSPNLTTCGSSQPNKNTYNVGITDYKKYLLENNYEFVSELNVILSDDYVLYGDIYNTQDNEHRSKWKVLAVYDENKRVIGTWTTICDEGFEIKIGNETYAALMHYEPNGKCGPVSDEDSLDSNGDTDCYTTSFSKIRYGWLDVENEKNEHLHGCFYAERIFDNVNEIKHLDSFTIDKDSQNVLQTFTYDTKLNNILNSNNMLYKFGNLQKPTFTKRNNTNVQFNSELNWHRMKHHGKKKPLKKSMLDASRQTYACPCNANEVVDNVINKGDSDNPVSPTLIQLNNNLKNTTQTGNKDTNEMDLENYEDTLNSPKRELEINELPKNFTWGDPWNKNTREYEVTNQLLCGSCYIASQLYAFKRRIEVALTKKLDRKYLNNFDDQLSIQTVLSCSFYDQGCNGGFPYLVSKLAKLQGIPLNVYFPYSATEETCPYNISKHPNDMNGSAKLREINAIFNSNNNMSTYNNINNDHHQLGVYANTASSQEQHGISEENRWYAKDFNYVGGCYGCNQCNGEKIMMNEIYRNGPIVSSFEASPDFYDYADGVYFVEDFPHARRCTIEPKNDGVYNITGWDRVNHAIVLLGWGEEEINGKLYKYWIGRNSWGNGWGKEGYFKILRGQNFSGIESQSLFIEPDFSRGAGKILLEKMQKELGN
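Also: 30 min substrate incubation versus DMSO and 10 µM JCP410 controls.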

| SMILES | % Inhibition @ 10 uM [%] |
| --- | --- |
| Cc1cccc(Cn2nc(C)c(NC(=O)c3ccc4c(c3)OCO4)c2C)c1 | -1.24 |
| COc1ccc(C(=O)NCc2ccc(C)cc2)c(OC)n1 | 0.029 |
| COc1ccc(-c2noc(-c3nnn(-c4ccc(Br)cc4F)c3N)n2)cc1 | 5.71 |
| Cc1c(C#N)c2ccccc2n1CC(=O)NCc1ccc2c(c1)OCO2 | -0.941 |
| CCc1nn(CC(=O)N2CCN(C(=O)c3ccco3)CC2)c(=O)c2cc3occc3n12 | -7.79 |
| O=C(O)Cc1c(C(=O)O)[nH]c2ccccc12 | -2.21 |
| Cc1cc(C)c2c(=O)c3c(oc2c1)C(=O)N(Cc1ccco1)C3c1ccc(Cl)cc1 (stereo not shown) | 1.67 |
| CC(=O)N1CCc2c([nH]c3ccccc23)C1c1cccc(O)c1 (stereo not shown) | 4.55 |
| Cc1[nH]c(C)c(C(=O)O)c1C=O | -1.97 |
| Cn1c(=O)c2c(ncn2Cc2cc(-c3ccccc3)no2)n(C)c1=O | -7.15 |
| CC1(C)CCCC2=C1CC(C(=O)O)C(C(=O)O)C2 (stereo not shown) | 1.9 |
| COc1ccccc1OCc1ccc(C(=O)NCc2ccco2)o1 | -8.85 |
| FC(F)(F)c1nc(NCC2CCCO2)nc2c1CCCCC2 (stereo not shown) | -0.972 |
| CCOC(=O)c1nc2c(=O)oc3ccccc3c2n(CC)c1=O | -3.57 |
| O=C(Nc1ccc(-c2nc3ccccc3[nH]2)cc1)C1CC1 | 18.3 |
| N#C/C(=C/Nc1ccccc1)c1nc(-c2ccc(-c3ccccc3)cc2)cs1 | 2.22 |
| Cc1ccc(Cn2nc(C)c(N)c2C)cc1 | -10.7 |
| CCN1C(=O)/C(=C\c2cc(OC)ccc2OC)S/C1=N\c1ccccc1 | 3.83 |
| Nc1c(N2CCCC2)cnn(-c2ccccc2)c1=O | 6.83 |
| CCOC(=O)c1c(Cl)nc(Cl)c(N)c1Cl | -0.597 |
| Cn1c(=O)c2c(nc(S(C)(=O)=O)n2C)n(C)c1=O | -0.671 |
| Cc1cc2c(c(=O)o1)C(c1cccs1)C(C#N)=C(N)O2 (stereo not shown) | -1.93 |

| SMILES | % Inhibition @ 10 uM [%] |
| --- | --- |
| O=C(Cn1cnc2onc(-c3ccc(F)cc3)c2c1=O)NCc1cccs1 | 5.84 |
| Cc1ccc(S(=O)(=O)N(CC(=O)N2CCOCC2)c2ccc(C(C)C)cc2)cc1 | 1.67 |
| COc1ccc(C(=O)N(Cc2ccc(C)cc2)Cc2ccco2)cc1 | 6.01 |
| O=C(CCSc1ccc2ccccc2n1)Nc1ccc(F)cc1 | -4.75 |
| COc1ccc(C2=NN(c3nc(C)c(C(C)=O)s3)C(c3ccco3)C2)cc1 (stereo not shown) | 2.42 |
| CC(C)C[C@H](NC(=O)c1cccc(NC(=O)OC(C)(C)C)c1)C(=O)NCC#N | 1.35 |
| Cc1cccc(C(=O)Nc2c3c(nn2-c2ccc(Cl)cc2)CSC3)c1 | 1.39 |
| O=C(Nc1nc2ccccc2s1)c1cccc(Cl)c1 | 6.97 |
| CCC1(C)NC(=S)N(c2ccccc2)N1 (stereo not shown) | -5.36 |
| N#Cc1cccc(NC(=O)CCC(=O)O)c1 | -7.87 |
| CC(=O)c1sc2nc(-c3ccccc3)c(-c3ccccc3)n2c1C | -4.01 |
| O=C(O)c1ccc(NS(=O)(=O)c2ccc(S(=O)(=O)N3CCOCC3)cc2)cc1 | -0.795 |
| Cc1cccc(C(=O)Nc2ccc(S(=O)(=O)N3CCc4ccccc43)cc2)c1 | 2.27 |
| Cc1noc(C(=O)NCCCn2ccnc2)c1Cl | -3.45 |
| O=C(c1ccc2c(c1)nc(S)n1c3ccccc3nc21)N1CCN(Cc2ccccc2)CC1 | 3.54 |
| O=C(Nc1c(C(=O)N2CCN(c3ccccc3)CC2)cnn1-c1ccccc1Cl)c1ccco1 | 0.583 |
| Cc1ccccc1OCC(=O)Nc1ccc(S(N)(=O)=O)cc1 | -2.8 |
| COCc1[nH]nc2c1C(c1ccc(OC(C)C)cc1)C(C#N)=C(N)O2 (stereo not shown) | -2.64 |
| Cc1cc(C)c2c(N)nn(C(=O)c3ccc(Br)cc3)c2n1 | -3.34 |
| O=C(Nc1ccccc1)c1cccc(N2C(=O)C3CCCCC3C2=O)c1 (stereo not shown) | -0.553 |
| COc1ccccc1C1CC(=O)NC(C)=C1C(=O)OCCSC (stereo not shown) | -4.81 |
| COc1ccc(C(=O)O/N=C(\N)c2ccc(OC)c(OC)c2)c(OC)c1 | 2.04 |

| SMILES | % Inhibition @ 10 uM [%] |
| --- | --- |
| Cn1c(=O)c2sccc2n2c(CCCC(=O)N3CCC(Cc4ccccc4)CC3)nnc12 | -7.18 |
| CCOC(=O)c1c(N)c(C#N)c(C)n1-c1ccc(Br)cc1 | -1.92 |
| COc1ccc(CC(=O)O/N=C(\N)c2ccccn2)cc1 | -3.06 |
| Cc1ccc(SC(C)C(=O)NC2CC3CCC2C3)cc1 (stereo not shown) | -0.25 |
| CCCN1CCN(C(=O)C2CCN(C(=O)c3cc4sccc4n3C)CC2)CC1 | 3.4 |
| COc1ccc2c(c1)CCC1C2=NN(/C(C)=C/C(C)=O)C1c1ccc([N+](=O)[O-])cc1 (stereo not shown) | 4.54 |
| CCOc1ccc2nc(SCC(=O)Nc3sc4c(c3C#N)CCC4)sc2c1 | -2.14 |
| CCOC(=O)c1ccc(-c2ccc(/C=C3/SC(=N)N(c4nonc4NC(C)=O)C3=O)o2)cc1 | 2.18 |
| COc1ccc2ccccc2c1CN1CCN(C(=O)c2ccncc2)CC1 | 2.3 |
| CCOc1ccccc1CNC(=O)CCn1c(-c2ccc(F)cc2)cc(C(C)=O)c1C | -1.7 |
| COc1cccc(CN(C(=O)c2ccccc2C)C2CCS(=O)(=O)C2)c1 (stereo not shown) | 5.17 |
| CCOc1cc(-c2cc(C(=O)O)c3c(-c4ccc(C)cc4)[nH]nc3n2)ccc1O | -4.58 |
| COc1ccc(N(CC(=O)Nc2ccc(OC)c(OC)c2)S(C)(=O)=O)cc1 | 1.89 |
| NS(=O)(=O)c1ccc(N/C=C/C(=O)c2cccnc2)cc1 | -1.66 |
| Cc1nn(-c2c[nH]nc2N)c(C)c1Br | 4.4 |
| O=C1OC(/C=C/c2ccccc2)=NC/1=C/c1ccccc1F | 3.42 |
| C=CCSc1nc(N)c(C#N)c(-c2cccs2)c1C#N | 0.962 |
| CC(=O)Nc1ccc(NC2OCC(O)C(O)C2O)cc1 (stereo not shown) | 1.42 |
| Cc1oc2ccc(O)cc2c1C(=O)c1ccc(Br)cc1 | 17.2 |
| COc1ccc(-c2cc(C(=O)NCCN3CCOCC3)c3ccccc3n2)c(OC)c1 | 1.27 |
